# In PubChem BioAssay AID1347070 (National Center for Advancing Translational Sciences (NCATS), 2019):
# Screen size: about 94,000 compounds; about 20 (0.02%) were called active. Inconclusive means that the source gave no clear call. Such entries were picked first, then a sample of the others. Calls follow the shape of the dose curve; as a rule, active = well fitted activation curve with a large enough effect; inconclusive = small, poorly fitted or top-dose-only effect; inactive = flat fitted curve, though single readings scatter. No potency is given beside an inconclusive call; the fits are too rough.
# Assay: qHTS of alpha-syn Inhibitors: NCGC Sytravon Library Screen; as to growth rescue (activation): 0% is about no effect
# Conditions: S. cerevisiae alpha-synuclein toxicity rescue, BacTiter-Glo growth, 24 h; growth rescue (activation): at 46.1 µM (top of the series)
# Summary of the method: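 Growth restoration measured by BacTiter-Glo luminescence after 24 hr at 30 deg C; alpha-synuclein yeast, raffinose-pregrown to mid-log, were added at OD600=0.02 in galactose medium onto pinned compounds.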
# Potency is read from the fitted curve at half-maximal effect; tags tell the direction and shape of the fitted curve.
Compound,growth rescue (activation),Potency
COc1ccc2sc(N(Cc3cccnc3)C(=O)c3ccc4c(c3)OCCO4)nc2c1,inactive: -12.2%,–
COCCNc1oc(-c2ccccc2)nc1S(=O)(=O)c1ccc(Br)cc1,–,"inconclusive [activator, single point]"
Cc1cccc(NC(=O)CSc2ccc(-c3ccccn3)nn2)c1,–,"inconclusive [activator, single point]"
CC(=O)c1ccc(NS(=O)(=O)c2cccc(S(=O)(=O)c3ccc(Cl)cc3)c2)cc1,inactive: -8.12%,–
COc1ccc(N(C(=O)c2ccncc2)S(=O)(=O)c2cccs2)cc1,inconclusive: 40.8% [activator],–
CCc1ccc(S(=O)(=O)N(C(=O)c2ccncc2)c2ccc3oc(C)c(C(=O)OC)c3c2)cc1,–,"inconclusive [activator, single point]"
Cc1ccc(Nc2c(-c3ccccc3O)nc3cnccn23)cc1,inconclusive: 239% [activator],–
Oc1c(CN2CCN(c3ccc(F)cc3)CC2)cc(Cl)c2cccnc12,inconclusive: 120% [activator],–
COc1cc(NS(=O)(=O)c2ccc(NC(=S)NC(=O)c3ccccc3)cc2)nc(OC)n1,inactive: 13.9%,–
Cc1ccc2nc(-c3ccc(NS(=O)(=O)c4c(C)n(C)c(=O)n(C)c4=O)cc3)sc2c1,inconclusive: 114% [activator],–
Cc1ccc(-n2cc(-c3ccccc3)nc2S(=O)(=O)CC(=O)Nc2ccc(F)cc2)cc1,–,"inconclusive [activator, single point]"
Cc1ccc(O)c(NC(=O)c2ccc(Br)c(S(=O)(=O)N3CCCCC3)c2)c1,inactive: -8.86%,–
COc1ccc2c(c1)c(CC(=O)OCC(=O)N(C)C)c(C)n2C(=O)c1ccc(Cl)cc1,inconclusive: 178% [activator],–
CCOc1cc(/C=C2\COc3ccccc3C2=O)cc(Br)c1OCC(=O)N(C)C,inconclusive: 62.4% [activator],–
O=c1c2ccc(Cl)cc2[nH]c(=S)n1CCC1=CCCCC1,inactive: -0.479%,–
COc1cccc2sc(N(Cc3cccnc3)C(=O)Cc3ccccc3)nc12,–,"inconclusive [activator, single point]"
CCOc1ccccc1CNC(=O)c1cc2n(n1)CCCN(Cc1ccc(C)cc1)C2=O,–,"inconclusive [activator, single point]"
O=C(c1ccc(-c2ccccc2Cl)o1)N1CCN(c2ccccc2O)CC1,inconclusive: 47.5% [activator],–
O=C(NCCc1ccccc1)c1nc(-c2ccc(Cl)cc2)n2c1CCCCC2,–,"inconclusive [activator, single point]"
Cc1ccc(SCn2nnc3ccccc3c2=O)c(C)c1,inconclusive: 41.3% [activator],–
Cc1ccc(/C=C/C(=O)OCn2nnc3ccccc3c2=O)o1,inconclusive: 169% [activator],–
O=C(CN1N=C(c2ccc(Cl)cc2)CCC1=O)NCCc1ccc(Cl)cc1,–,"inconclusive [activator, single point]"

Compound,growth rescue (activation),Potency
CC1CCCc2sc3nc(SCC(=O)c4ccc(Br)cc4)nc(N)c3c21 (centres undefined),–,"inconclusive [activator, single point]"
CCN(CC)CCNC(=O)C1CCN(c2nn3cc(-c4ccc(F)cc4)nc3s2)CC1,inactive: 6.73%,–
COc1ccc(-c2nc3ccc(NS(=O)(=O)c4ccc(C)cc4)cc3o2)cc1,–,"inconclusive [activator, partial curve]"
O=C(CSc1ccccn1)N/N=C/c1cc([N+](=O)[O-])ccc1O,inconclusive: 56.4% [activator],–
C/C(CC(=O)NC(C)c1ccccc1)=N\NC(N)=S (centres undefined),inactive: 5.9%,–
COc1ccc(Cl)cc1NC(=O)CCC(=O)N1CCOc2ccccc21,–,"inconclusive [activator, single point]"
Cc1noc(/C=C/c2ccccc2F)c1S(=O)(=O)N1CCC(C(=O)N(C)Cc2ccco2)CC1,inactive: 2.73%,–
CCOc1ccc(NC(=O)c2c(NCc3ccc(C)o3)sc3c2CCC(C)C3)cc1 (centres undefined),–,"inconclusive [activator, partial curve]"
Cc1ccc(C)c(CN2C(=O)c3ccccc3S(=O)(=O)c3ccc(C(=O)N4CCN(c5ccccn5)CC4)cc32)c1,inactive: 2.73%,–
COc1ccc(C(C(=O)NCc2ccccc2)N(C(=O)Cn2nnc3ccccc32)c2cccc(OC)c2)cc1 (centres undefined),–,"inconclusive [activator, single point]"
CC1=C(C(=O)Nc2cccnc2)C(c2cccc(Br)c2)n2nc(SCc3ccccc3)nc2N1 (centres undefined),inactive: 1.03%,–
Cc1ccc(Cl)cc1N1CCN(Cc2nnc(-c3ccc4c(c3)OCO4)o2)CC1,inactive: 19.3%,–
CC(=O)N1CCc2c(sc3nc(SCC(C)C)n(-c4ccc(F)c(Cl)c4)c(=O)c23)C1,inconclusive: 34.9% [activator],–
O=S(=O)(c1ccccc1)N(CC(O)COc1ccccc1)c1ccccc1 (centres undefined),inconclusive: 37.3% [activator],–
Cc1ccc(NS(=O)(=O)c2ccc3c(c2)CCCN3C(=O)C2CCC2)c(C)c1,–,"inconclusive [activator, single point]"
CCOc1ccccc1NC(=O)c1cnn2c(C(F)F)cc(-c3ccccc3)nc12,inactive: -8.68%,–
Cc1nc2cccnc2n1-c1cccc(C(=O)N2CCN(c3ccc(Cl)cc3)CC2)c1,–,"inconclusive [activator, single point]"
CCCCOc1ccc(C(=O)Nc2cccc(-c3nc4cccnc4s3)c2)cc1,inactive: -17%,–
CC(C)(C)OC(=O)N1CCC(c2c(C(=O)N3CCC(c4ccccc4)C3)cnn2-c2cccc(Cl)c2)CC1 (centres undefined),–,"inconclusive [activator, single point]"
O=C(CSCc1ccccc1Cl)N1CCN(c2ccc(Cl)cc2)CC1,–,"inconclusive [activator, single point]"
Clc1ccc(-c2noc3ncnc(NCCc4ccccc4)c23)cc1,inactive: 3.37%,–
Cc1cccc(-c2nnc(C3CCN(S(=O)(=O)c4cccc(Cl)c4)CC3)o2)c1,–,"inconclusive [activator, single point]"
